Measured values as given in PubChem BioAssay AID686971 (National Center for Advancing Translational Sciences (NCATS), 2013).
About 7,500 (2.1%) of roughly 360,000 compounds were called active. The inconclusive results got no clear call from the source; some entries with a clear call stand among them for comparison. Calls follow the shape of the dose curve; as a rule, active = well fitted cell-killing curve with a large enough effect; inconclusive = small, poorly fitted or top-dose-only effect, or effect the other way, or another doubt; inactive = no such curve, though single readings can be large or run the other way. No potency is given beside an inconclusive call; the fits are too rough.

Assay: qHTS for induction of synthetic lethality in tumor cells producing 2HG: qHTS for the HT-1080-IDH1KD cell line;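 as to activity, negative = toxicity: 0% = DMSO wells and -100% = cell-free medium wells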
Details: HT-1080 IDH1 knockdown viability, ATP luminescence, 48 h; activity, negative = toxicity: at 46.1 µM (top of the series) unless noted
Method in brief: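 After a 2 h attachment period, IDH1KD HT-1080 cells took pin-transferred compound for 48 h at 37 °C; ATP-based luminescence after 10 min room-temperature reagent incubation reported viability.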
Potency is read from the fitted curve at half-maximal effect; tags tell the direction and shape of the fitted curve.

| SMILES | Potency | activity, negative = toxicity |
| --- | --- | --- |
| O=C(NNC(=O)c1ccccc1[N+](=O)[O-])Nc1ccc(Cl)cc1 | inactive | – |
| Cc1c(NS(=O)(=O)c2ccc(Br)cc2)c(=O)n(-c2ccccc2)n1C | inactive | – |
| COCCC(=O)N1CCC(Oc2ccc(C(=O)NCCc3cnn(C)c3)cc2)CC1 | inactive | – |
| O=C(CCCCCNc1nc(=S)[nH]c2ccccc12)NCCc1ccc(Cl)cc1 | inactive | – |
| FC(F)(F)c1ccc(-c2nnc(-c3ccccn3)c(-c3ccccn3)n2)nc1 | inconclusive [rising, partial curve, poor fit] | – |
| CN(C)c1ccc(NC(=O)Nc2ccc3c(c2)nnn3C)cc1 | inactive | – |
| Cn1c(CC(=O)NNC(=O)c2ccccc2F)nc2ccccc21 | inactive | – |
| Cc1nc(N)c(Br)c(C)c1Br | inconclusive [cytotoxic, single point] | – |
| S=C(NCCCc1ccccc1)Nc1ccccc1 | inactive | – |
| O=C(CSc1nnc(COc2ccc(Cl)cc2)o1)N1c2ccccc2CCc2ccccc21 | inconclusive [cytotoxic, single point] | – |
| COc1cc(CNC2CCCCCCC2)cc(Br)c1OCC#N | inconclusive [cytotoxic, single point] | – |
| COc1cc(NC(=O)C2CCCCC2)c(OC)cc1NC(=O)c1ccco1 | inactive | – |
| COc1ccc(NC(=O)CN2CCN(S(=O)(=O)c3ccc(Cl)cc3)CC2)cc1 | inactive | – |
| CCCC(c1nnnn1CCOC)N(Cc1cc2cc(C)c(C)cc2[nH]c1=O)CC1CCCO1 (stereo not drawn) | – | inconclusive: -0.229% |
| O=C(Cc1ccccc1)NC(NC(=O)Cc1ccccc1)c1cccc([N+](=O)[O-])c1 | inconclusive [cytotoxic, single point] | – |
| Cc1cc(C)cc(NC(=O)CSc2nc3[nH]ncc3c(=O)[nH]2)c1 | inconclusive [cytotoxic, partial curve] | – |
| CC(=O)Nc1ccc(-n2nnnc2SCC(=O)N2CCN(C(=O)c3ccco3)CC2)cc1 | inactive | – |
| COc1ccc(NCC(=O)Nc2ccc(Cl)cc2C)c(OC)c1 | active: 15.8 µM | – |
| COc1ccccc1CN1CC(C(=O)NCCC2=CCCCC2)CCC1=O (stereo not drawn) | inactive | – |
| CCCC(=O)Nc1ccc(C(=O)N/N=C/c2ccc([N+](=O)[O-])o2)cc1 | active: 13 µM | – |
| C/C(=N\NC(=O)c1cc(Cl)ccc1O)c1ccc(Br)s1 | – | inconclusive: -23.4% [cytotoxic] |
| Cc1ccc(S(=O)(=O)N2CCC(C(=O)NNS(=O)(=O)c3ccc(Cl)cc3)CC2)cc1 | inactive | – |
| CCc1ccc(NC(=O)CS(=O)CC(=O)Nc2ccc(F)cc2F)cc1 (stereo not drawn) | inconclusive [cytotoxic, full curve, poor fit] | – |
